From PubChem BioAssay AID1508642 (National Center for Advancing Translational Sciences (NCATS), 2021) come the findings set out here.

The whole screen tested about 43,000 compounds, of which about 200 (0.47%) were called active. Inconclusive results (about 12%) are left out. Calls follow the shape of the dose curve; as a rule, active = well fitted cell-killing curve with a large enough effect; inconclusive = small, poorly fitted or top-dose-only effect, or effect the other way; inactive = flat fitted curve, though single readings scatter. The list shows a part of the results.
% is scaled to controls: 0 for no effect and ±100 for the full control effect.

This test in a line: Cell viability qHTS assay in S16 Pmp22-F2sN cells. Also: nearly all actives have a fitted effect of over 65% in size. The settings on record: S16 Pmp22-F2sN Schwann cells (luciferase reporters placed in the Pmp22 gene) viability, CellTiter-Glo, 24 h; series mostly up to 57.5 µM; activity change, negative = cytotoxicity: at the top concentration. In a few lines:
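Seed 500-1,000 S16 Pmp22-F2sN cells per well in phenol-red-free DMEM with 10% heat-inactivated FBS; pin-add 23 nL compound; incubate 24 h at 37C; add CellTiter-Glo, wait 15 min protected from light; read luminescence.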
For the molecule `O=C(Nc1ccccc1)C(Cc1ccccc1)N1Cc2ccccc2C1=O` (stereo unspecified), the “activity change, negative = cytotoxicity” value was inactive: 1.04%.

For `COc1ccc(-c2cc(C(=O)NCc3cc(OC)c(OC)c(OC)c3)[nH]n2)cc1`, the “activity change, negative = cytotoxicity” value is inactive: -12.2%.

For the molecule `CCc1ccc(S(=O)(=O)c2nnn3c2nc(N2CCC(C)CC2)c2cc(Cl)ccc23)cc1`, the “activity change, negative = cytotoxicity” value was inactive: -13%.

On to `CCOC(=O)c1c(NC(=O)CSc2cn(CCNC(=O)c3ccccc3F)c3ccccc23)sc2c1CCC2`, for which the “activity change, negative = cytotoxicity” value is inactive: 0.703%.

As to `O=C(Nc1ccc2nc(SCC(=O)N3CCCc4ccccc43)sc2c1)c1cccc(F)c1`, the “activity change, negative = cytotoxicity” value was inactive: -12.5%.

Consider `COC(=O)c1cc(S(=O)(=O)NCC2CCN(Cc3ccc(F)cc3)CC2)cn1C`, for which the “activity change, negative = cytotoxicity” value is inactive: -2.36%.

Consider `Fc1ccc(-n2ncc3c(NCCCN4CCOCC4)ncnc32)cc1`, for which the “activity change, negative = cytotoxicity” value was inactive: 6.36%.

Take `COc1cc(NC(=O)CCc2c(C)nn(-c3ccc4nncn4n3)c2C)cc(OC)c1OC`: the “activity change, negative = cytotoxicity” value is inactive: 2.99%.

On to `Cc1ccc(Cl)cc1N1CCN(S(=O)(=O)c2ccc3[nH]c4c(c3c2)CCCCC4)CC1`, for which the “activity change, negative = cytotoxicity” value was inactive: -2.11%.

In the case of `COc1cccc(CNC(=O)c2ccc(CSc3nc4ccncc4n3Cc3cccc(C)c3)cc2)c1`, the “activity change, negative = cytotoxicity” value is inactive: -21.4%.

For `Cc1ccc2c(c1)N(CCC(=O)NCc1ccc(F)cc1)C(=O)CO2`, the “activity change, negative = cytotoxicity” value is inactive: -0.846%.

As to `Cc1cccc(CSc2ncc(CO)n2Cc2ccc(F)cc2)c1`, the “activity change, negative = cytotoxicity” value was inactive: -14.5%.

In the case of `Cc1ccc2c(c1)-c1nc(-c3ccc(Cl)cc3)cc(-c3coc4ccccc4c3=O)c1CO2`, the “activity change, negative = cytotoxicity” value is inactive: 22.4%.

Turning to `Cc1cc(C)c2c(=O)cc(C(=O)Nc3sc4c(c3C(=O)NCc3ccccc3)CCCC4)oc2c1`, the “activity change, negative = cytotoxicity” value was inactive: -3.04%.

In the case of `CCCSc1ncc(Cl)c(C(=O)Nc2ccc(S(=O)(=O)Nc3ncccn3)cc2)n1`, the “activity change, negative = cytotoxicity” value was inactive: 1.75%.

Take `Cc1cccc(NC(=O)C(=O)NCC(c2ccc3c(c2)OCO3)N2CCOCC2)c1C` (stereo unspecified): the “activity change, negative = cytotoxicity” value is inactive: -9.55%.

Take `COc1cc(OC)cc(C(=O)Oc2c(Sc3ccccc3)c(C)nn2C(C)(C)C)c1`: the “activity change, negative = cytotoxicity” value was inactive: -13.1%.

In the case of `Cc1cn2c(=O)cc(COC(=O)c3cccc(NC(=O)COc4ccccc4Cl)c3)nc2s1`, the “activity change, negative = cytotoxicity” value was inactive: 12.9%.

For the molecule `CC(C)CCNC(=O)CCCN1C(=O)c2ccccc2Sc2ncccc21`, the “activity change, negative = cytotoxicity” value was inactive: 8.89%.

Take `COc1cc(-c2noc(CN3CCN(c4ccccc4)CC3)n2)cc(OC)c1OC`: the “activity change, negative = cytotoxicity” value is inactive: 1.1%.

Regarding `CN1CCN(C(CNC(=O)c2cccc(F)c2)c2ccc3c(c2)OCO3)CC1` (stereo unspecified), the “activity change, negative = cytotoxicity” value is inactive: 9.37%.

As to `CCOc1ccc(-n2c(Cc3ccccc3)nnc2SCc2nc(-c3ccccc3OC)no2)cc1`, the “activity change, negative = cytotoxicity” value is inactive: -11.9%.

`Cc1cc(C)c(NC(=O)C2CCN(c3nc4ccccc4[nH]3)CC2)c(C)c1`: the “activity change, negative = cytotoxicity” value is inactive: 19.7%.

Consider `O=C(Nc1cccs1)Nc1cc(C(F)(F)F)ccc1Cl`, for which the “activity change, negative = cytotoxicity” value was inactive: -27.5%.

On to `Cc1ccc(Cl)cc1N1CCN(C(=O)c2cnc(N3CCOCC3)c3ccccc23)CC1`, for which the “activity change, negative = cytotoxicity” value was inactive: -22.2%.

`Cc1ccccc1-n1c(SCC(=O)Nc2ccc(Cl)cc2F)nnc1-c1cc2occc2n1C`: the “activity change, negative = cytotoxicity” value was inactive: 4.97%.

Regarding `CCc1ccc(NC(=O)CN2CCN(Cc3ccccc3)S2(=O)=O)cc1`, the “activity change, negative = cytotoxicity” value was inactive: -20.4%.

With `CCOC(=O)C1CCN(c2ncnc3c2c(-c2ccccc2)cn3-c2cccc(C)c2)CC1`, the “activity change, negative = cytotoxicity” value was inactive: 3.75%.

In the case of `Cc1oc2c(c(C)cc3oc(=O)c(CC(=O)NCCc4ccccc4F)c(C)c32)c1C`, the “activity change, negative = cytotoxicity” value was inactive: 17.1%.

With `Cc1ccc(Cn2c(C(=O)O)c(CNCc3ccccc3Cl)c3ccc(C)cc32)cc1`, the “activity change, negative = cytotoxicity” value is inactive: 4.53%.

Regarding `COc1cccc(NC(=O)CSc2nc3c(oc4ccccc43)c(=O)n2Cc2ccco2)c1`, the “activity change, negative = cytotoxicity” value is inactive: -4.87%.

In the case of `O=C(Nc1ccc2oc(-c3cccnc3)nc2c1)c1cccc(Br)c1`, the “activity change, negative = cytotoxicity” value was inactive: -5.39%.

Regarding `Cc1ccc(N(CC(=O)NCCc2ccc(Cl)cc2)S(=O)(=O)N(C)C)cc1`, the “activity change, negative = cytotoxicity” value is inactive: -3.39%.

Consider `Cc1ccc(-c2nc3cc(C(C)C)ccc3o2)cc1NC(=O)c1cc2ccccc2o1`, for which the “activity change, negative = cytotoxicity” value is inactive: -11.3%.

Turning to `CCc1ccc(CNC(=O)c2sc3ncccc3c2-n2c(C)ccc2C)cc1`, the “activity change, negative = cytotoxicity” value was inactive: -18.3%.

Consider `CCOc1ccccc1CNS(=O)(=O)c1ccc2c(c1)CCCN2C(C)=O`, for which the “activity change, negative = cytotoxicity” value was inactive: 2.85%.

Regarding `O=C(Cn1ccn(-c2ccc(F)c(F)c2)c(=O)c1=O)Nc1ccccc1F`, the “activity change, negative = cytotoxicity” value was inactive: -0.617%.

On to `Cc1ccc(OCC(=O)Nc2ccc(S(=O)(=O)Nc3cc(C)nc(C)n3)cc2)c(Br)c1`, for which the “activity change, negative = cytotoxicity” value was inactive: -3.72%.

In the case of `Cc1ccc(C)n1-c1nnc(N2CCCC(C(=O)NCc3ccc(Cl)cc3)C2)s1` (stereo unspecified), the “activity change, negative = cytotoxicity” value was inactive: -13.5%.

With `Cc1ccc(CN2CCc3nc(N4CCN(c5ncccn5)CC4)ncc3C2)cc1`, the “activity change, negative = cytotoxicity” value is inactive: -19.8%.

With `CCCc1nn2c(=O)cc(COC(=O)c3cccc(NC(=O)COc4ccc(F)cc4)c3)nc2s1`, the “activity change, negative = cytotoxicity” value is inactive: 1.2%.

In the case of `CCOC(=O)c1scc(-c2ccccc2)c1S(=O)(=O)Nc1ccccc1F`, the “activity change, negative = cytotoxicity” value is inactive: 15.3%.

For the molecule `CC(C)c1ccc(C2N3CC4(C)CN2CC(c2ccccc2)(C3)C4=O)cc1` (stereo unspecified), the “activity change, negative = cytotoxicity” value is inactive: -3.5%.

`Cc1ccccc1NC(=O)c1ccc(F)c(S(=O)(=O)N(C)Cc2ccccc2)c1`: the “activity change, negative = cytotoxicity” value was inactive: 1.39%.

For the molecule `Cc1nc(-c2ccc(Cl)cc2)sc1CCNC(=O)C(=O)Nc1ccc(F)cc1F`, the “activity change, negative = cytotoxicity” value is inactive: 10.5%.

As for `Cc1cc(C)c(Cn2c3ccccc3c3cnn(CC(=O)NC4CCC(C)CC4)c(=O)c32)c(C)c1` (stereo unspecified), the “activity change, negative = cytotoxicity” value is inactive: 3.45%.

As for `O=C(O)c1cc(NC2(c3ccccc3)C(=O)c3ccccc3C2=O)ccc1Cl`, the “activity change, negative = cytotoxicity” value is inactive: 10.1%.

On to `O=C(Cn1c(=O)oc2cc(S(=O)(=O)N3CCCCC3)ccc21)Nc1cccc(Cl)c1`, for which the “activity change, negative = cytotoxicity” value was inactive: 15.4%.

For the molecule `CCCCN1C(=O)c2[nH]nc(-c3ccccc3O)c2C1c1cccc(OCc2ccccc2)c1` (stereo unspecified), the “activity change, negative = cytotoxicity” value was inactive: 1.92%.

With `Cc1ccc2[nH]c(=O)c3cc(C(=O)N4CCN(c5ccccc5)CC4)sc3c2c1`, the “activity change, negative = cytotoxicity” value is inactive: -0.272%.

`Cc1cccc(C(=O)Nc2sc3c(c2C(=O)NCc2ccco2)CCCC3)c1`: the “activity change, negative = cytotoxicity” value was inactive: -0.0051%.

For `COc1cccc(NC(=O)NCc2ccc3c(c2)CCN3C(=O)c2ccccc2)c1`, the “activity change, negative = cytotoxicity” value is inactive: 3.5%.

Turning to `CCN(CC)S(=O)(=O)c1ccc2c(c1)N(CC(=O)NCCCN1CCN(c3ccccc3F)CC1)C(=O)CO2`, the “activity change, negative = cytotoxicity” value is inactive: -17.6%.

`COC(=O)c1sccc1S(=O)(=O)N1CCN(c2ccccc2)CC1`: the “activity change, negative = cytotoxicity” value is inactive: 14%.

Take `CCOc1ccc(CCNC(=O)CCc2c(C)nc3c4c(C)cc(C)nc4nn3c2C)cc1`: the “activity change, negative = cytotoxicity” value is inactive: 1.31%.

Turning to `COc1ccc(Cl)cc1NC(=O)CSc1nnc(C)n2c1cc1occc12`, the “activity change, negative = cytotoxicity” value is inactive: -6.78%.

With `Cc1cc(NC(=O)C2CCCN(S(=O)(=O)c3ccc(Br)s3)C2)ccc1Br` (stereo unspecified), the “activity change, negative = cytotoxicity” value was inactive: -7.67%.

For the molecule `COc1ccc(CC(=O)Nc2ccc(-c3nc4ccccc4s3)cc2Cl)cc1`, the “activity change, negative = cytotoxicity” value is inactive: 1.45%.

As for `Cc1ccc(CCNC(=O)CN2C(=O)COc3ccc(S(=O)(=O)N4CCC(C)CC4)cc32)cc1`, the “activity change, negative = cytotoxicity” value was inactive: -2.29%.

With `CCN1CCN(C(c2cccc(Cl)c2)c2c(O)cc(C)n(CCOC)c2=O)CC1` (stereo unspecified), the “activity change, negative = cytotoxicity” value was inactive: 4.23%.

As for `Cc1cc(OCC(=O)NCC2(N(C)C)CCCCC2)cc(C)c1Cl`, the “activity change, negative = cytotoxicity” value was inactive: 1.53%.
